Test results published in PubChem BioAssay AID1159614 (National Center for Advancing Translational Sciences (NCATS), 2016).
The whole screen tested about 45,000 compounds, of which about 65 (0.1%) were called active. Calls come from the whole dose curve; as a rule, active = well fitted activation curve with a large enough effect; inconclusive = small, poorly fitted or top-dose-only effect; inactive = no such curve, though single readings can be large or run the other way. Some of the results follow.

What follows are compounds tested against Galactocerebrosidase (Homo sapiens) (UniProt P54803) (assay: A Novel Cell-Based Assay to Identify Small Molecules for B -Galactocerebrosidase). Settings: 145M-Twi-hGALC-G270D cells (Twitcher mouse brain line with human GALC G270D), HMU-beta-Gal fluorescence, 48 h; series mostly up to 57.5 µM; activation: at the top concentration.
Chain of UniProt P54803 (P54803 whole entry, looked up): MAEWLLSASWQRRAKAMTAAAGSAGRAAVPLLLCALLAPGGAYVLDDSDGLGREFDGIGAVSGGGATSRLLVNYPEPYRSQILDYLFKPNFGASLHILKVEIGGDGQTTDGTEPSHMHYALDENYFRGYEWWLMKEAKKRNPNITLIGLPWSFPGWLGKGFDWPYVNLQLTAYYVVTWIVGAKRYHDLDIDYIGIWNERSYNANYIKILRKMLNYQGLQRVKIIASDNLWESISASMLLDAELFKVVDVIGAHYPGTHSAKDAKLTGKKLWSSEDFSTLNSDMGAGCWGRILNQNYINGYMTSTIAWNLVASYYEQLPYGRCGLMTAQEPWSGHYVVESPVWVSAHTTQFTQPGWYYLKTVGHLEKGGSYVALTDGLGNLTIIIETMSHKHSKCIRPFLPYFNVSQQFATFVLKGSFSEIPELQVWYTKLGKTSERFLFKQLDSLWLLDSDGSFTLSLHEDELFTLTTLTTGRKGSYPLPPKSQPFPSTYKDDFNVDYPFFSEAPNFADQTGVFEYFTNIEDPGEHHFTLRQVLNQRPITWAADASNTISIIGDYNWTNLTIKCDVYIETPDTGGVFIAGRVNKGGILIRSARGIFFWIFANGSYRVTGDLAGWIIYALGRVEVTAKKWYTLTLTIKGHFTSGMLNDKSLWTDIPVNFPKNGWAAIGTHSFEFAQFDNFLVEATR
In short: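 Mutant human GALC (G270D), stably expressed in a Twitcher mouse brain cell line lacking endogenous GALC, is measured in live-treated cells via 6-hexadecanoylamino-4-methylumbelliferyl-β-galactoside hydrolysis (0.1 mM final, pH 5.2) with fluorescent detection.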
Note: 0% is about no effect; nearly all actives have a fitted effect of over 65% in size.

activation, inactive:
COC(=O)c1ccc(Cn2nnc3c(=O)[nH]c(C4CCCN(S(=O)(=O)c5ccccc5Cl)C4)nc32)cc1 (centres undefined) -10.6%
Cc1ccc(-c2nnc3c4ccccc4c(C)nn23)cc1NC(=O)c1ccccc1 -15.6%
CCOC(=O)c1cnc2c(Cl)cc(Cl)cc2c1Nc1ccccc1OC -14.3%
COc1ccc(-c2cn3c(C)c(C(=O)Nc4cc(C)cc(C)c4)sc3n2)cc1 -19.9%
Cc1cc(-c2ccc(C)c(S(=O)(=O)N3CCOc4ccc(Cl)cc43)c2)on1 -13%
CCc1cccc(NC(=O)CN(C)S(=O)(=O)c2ccc3[nH]c4c(c3c2)CCCC4)c1 -1.92%
CC(C)(C)OC(=O)N1CCC(c2c(C(=O)N3CCN(C(=O)c4ccco4)CC3)cnn2-c2ccc(F)cc2F)CC1 4.64%
CCOc1ccc(-n2nc3ccc(NC(=O)Cc4ccccc4)cc3n2)cc1 -25.1%
CCCOC(=O)c1c(NC(=O)c2cc3ccccc3c(=O)o2)sc2c1CCC(C)C2 (centres undefined) -13%
COc1cc(NC(=O)c2nnn(CC(=O)Nc3cc(C)ccc3C)c2N)cc(OC)c1 -10%
COc1cc(NC(=O)c2cc(-c3cccc(OC)c3)n[nH]2)cc(OC)c1 -5.36%
CCOc1ccc(-n2c(SCC(=O)Nc3ccc(CC)cc3)nc3c(oc4ccccc43)c2=O)cc1 -2.27%
CCOc1cc(C(=O)Nc2ccc3c(c2)n(C)c(=O)c(=O)n3C)cc(OCC)c1OCC -21.2%
O=C(Nc1ccc(OC(F)(F)F)cc1)c1noc2c1CCCC2 -15.9%
CCOC(=O)CCc1c(C)nc2cc(-c3cc(OC)cc(OC)c3)[nH]n2c1=O -9.68%
CCC1=C(c2ccc(C)cc2)S(=O)(=O)N=C1N1CCC(C(=O)NCc2ccc(N(C)C)cc2)CC1 -24.9%
CCN1C(=O)c2ccccc2Sc2ccc(NC(=O)Nc3cccc([N+](=O)[O-])c3C)cc21 -3.03%
COc1ccc(CNC(=O)c2cnn3c(C)c(Cc4c(F)cccc4Cl)c(C)nc23)cc1 -20.9%
COc1ccc(N(C(=O)c2ccc(C(C)(C)C)cc2)S(=O)(=O)c2ccc(Cl)cc2)cc1 -9.96%
Cc1ccc(N2CC(NC(=O)c3cccc(Cl)c3)CC2=O)cc1C (centres undefined) -9.17%
CCOC(=O)c1c(C)oc2ncnc(Nc3cc(C)cc(C)c3)c12 -8.93%
O=C(NCCc1csc2nc(-c3ccccc3F)nn12)C(=O)Nc1cc(F)ccc1F -4.66%
O=C(NCCCN1CCN(c2cccc(Cl)c2)CC1)c1cnn(-c2ccc(F)cc2)c1-n1cccc1 -30.6%
CC1CCCN(C(=O)Cn2ncc3c([nH]c4ccccc43)c2=O)C1 (centres undefined) -4.44%
CCc1ccccc1Nc1sc(C(=O)c2cccc(OC)c2)c(N)c1S(=O)(=O)c1ccccc1 -13%
COC(=O)c1c(NC(=O)/C(C#N)=C/c2ccccc2)sc2c1C(C(=O)OC)CC2 (centres undefined) -5.16%
CCCCOc1ccc(C(=O)NCc2nnnn2-c2ccc(C)c(C)c2)cc1 5.9%
COc1ccc(C2c3c(n(C)c4ccccc34)C(=O)N2CC(=O)Nc2cccc(Cl)c2C)cc1 (centres undefined) -20.4%
Cc1cccc(N2CCN(C(=O)c3cnc(N4CCCC4)nc3C)CC2)c1C -8.05%
COc1cc(O)cc(O)c1 -8.23%
COc1ccc(OCc2ccc(-c3nc(C#N)c(N4CCCCC4)o3)o2)cc1 -12.4%
Cc1ccccc1OCC(=O)N1CCC(c2nc3ccccc3s2)CC1 -9.65%
CCCSc1ncc(Cl)c(C(=O)N(Cc2ccc(Cl)cc2)Cc2ccco2)n1 -0.0405%
CCc1ccccc1NC(=O)Cn1c(=O)ccc2cc(S(=O)(=O)N3CCCC3)ccc21 -10.5%
CCOC(=O)N1CCc2c(sc3c2c(=O)n(-c2ccc(CC)cc2)c(=O)n3C)C1 -12.9%
COc1ccc(S(=O)(=O)N2Cc3ccccc3CC2C(=O)Nc2ccc(C)cc2C)cc1OC (centres undefined) -20%
CCOC(=O)c1c(C)[nH]c(C)c1S(=O)(=O)N1CCC(C(=O)NCc2cccc(OC)c2)CC1 -9.96%
CCC1CCCCN1S(=O)(=O)c1cc2c3c(c1)CC(=O)N3CCC2 (centres undefined) -12%
CCC(C(=O)O)n1ccc2cc(S(=O)(=O)N3CCCCC3)ccc21 (centres undefined) -6.55%
Cc1c(C(=O)N(C)C)sc2c1c(=O)n(-c1ccc(Cl)cc1)c(=O)n2CC(=O)C(C)(C)C 3.88%
COc1ccc(C(=O)c2c(N)c(C(=O)Nc3cccc(OC)c3)c3ccccn23)cc1 -12%
COc1ccc(-n2c(=O)c3sc4ccccc4c3n(Cc3ccccc3C)c2=O)cc1OC -13.5%
Cc1ccc(NC(=O)Cn2nc(N3CCN(c4ccccc4)CC3)ccc2=O)cc1F -10.8%
Cc1ccc(C)c(NC(=O)Cn2cc(S(=O)(=O)Cc3cccc(Cl)c3)c3ccccc32)c1 -7.33%
CCc1ccc(NC(=O)CN2C(=O)CSc3ccc(S(=O)(=O)N(C)C)cc32)cc1 -6.95%
Cc1ccccc1C(=O)Nc1cccc(OCc2cc(=O)n3cccc(C)c3n2)c1 -2.54%
CC1CCCN(CCCNC(=O)c2ccc3c(c2)N(Cc2ccc(Cl)cc2)C(=O)c2ccccc2S3(=O)=O)C1 (centres undefined) 0.394%
Cc1cc(OC(C)C(=O)N(Cc2ccc(N(C)C)cc2)Cc2ccco2)ccc1Cl (centres undefined) -18.3%
COc1ccc2cc3c(N)nn(C(=O)c4ccccc4Cl)c3nc2c1 -14.3%
COc1ccc(-c2noc(CN(C(=O)C(C)Oc3ccc(C)cc3)C(C)C)n2)cc1 (centres undefined) -10.6%
CC(=O)O[C@]1(C(C)=O)CC[C@H]2[C@@H]3C=C(Cl)C4=CC(=O)CC[C@]4(C)[C@H]3CC[C@@]21C -12.7%
CCn1cc(C(=O)NCCc2ccc(OC)c(OC)c2)c(=O)c2cc(S(=O)(=O)N(C)C3CCCCC3)ccc21 1.83%
CCOc1ccc(NC(=O)N2CCN(c3ccc(Cl)c(Cl)c3)CC2)cc1 -8.41%
O=C(NCc1ccccc1)c1ccc2c(c1)CCN2S(=O)(=O)c1ccc(Cl)cc1 -9.49%
Cc1ccccc1CNC(=O)CCS(=O)(=O)c1cc2c3c(c1)CCN3C(=O)CC2 -17.3%
CCOc1cccc(CNC(=O)c2ccc(N3CCCC3)c(NC(=O)NCc3ccccc3)c2)c1 -23.8%
Cn1nnc2c(N3CCN(c4ccc(F)cc4)CC3)ncnc21 -4.48%
COc1ccc(Cl)cc1NC(=O)Cn1ccn(-c2cc(C)cc(C)c2)c(=O)c1=O -4.46%
CCc1ccc(NCc2cc3ccc(OC)cc3n(CC(=O)Nc3c(C)cc(C)cc3C)c2=O)cc1 -17.1%
